For 153 variants, enrichment ratio results are on record in a collection of fitness landscapes (doi:10.1126/science.1257360).

The list shows a part of the results.

To fix the notation:
B1: PhoQ; a variant is named by its letters at X, in order, P23837 (parent)
chain: MKKLLRLFFPLSLRVRFLLATAAVVLVLSLAYGMVALIGYSVSFDKTTFRLLRGESNLFYTLAKWENNKLHVELPENIDKQSPTMTLIYDENGQLLWAQRDVPWLMKMIQPDWLKSNGFHEIEADVNDTSLLLSGDHSIQQQLQEVREDDDDAEMTHSVAVNVYPATSRMPKLTIVVVDTIPVELKSSYMVWSWFIYVLSANLLLVIPLLWVAAWWSLRPIEALAKEVRELEEHNRELLNPATTRELTSLVRNLNRLLKSERERYDKYRTTLTDLTHSLKTPLXXLQXXLRSLRSEKMSVSDAEPVMLEQISRISQQIGYYLHRASMRGGTLLSRELHPVAPLLDNLTSALNKVYQRKGVNISLDISPEISFVGEQNDFVEVMGNVLDNACKYCLEFVEISARQTDEHLYIVVEDDGPGIPLSKREVIFDRGQRVDTLRPGQGVGLAVAREITEQYEGKIVAGESMLGGARMEVIFGRQHSAPKDE

The variants in this assay derive from B1. Description: enrichment ratio after two sorts for PhoP signalling (ratio (wild type AVST 3.29)); higher = more functional. Particulars: with PhoP (E. coli).
For RWCT, the enrichment ratio is no more than 0.25.
For NRQD, the enrichment ratio was no more than 0.25.
VMCT: the enrichment ratio is no more than 0.25.
Then HPQP, with no more than 0.25; and TKKK, with no more than 0.25; and DNIW, with no more than 0.25.
The figure for DCAC is no more than 0.25; for LKCH it is no more than 0.25.
The figure for DCHT is no more than 0.25; for STRE it is no more than 0.25.
As to KVIM, the enrichment ratio was no more than 0.25.
For the variant FCTE, the enrichment ratio was no more than 0.25.
Regarding VDHP, the enrichment ratio was no more than 0.25.
With FGLD, the enrichment ratio is no more than 0.25.
With YFEP, the enrichment ratio was no more than 0.25.
Consider DYCG, for which the enrichment ratio turned out to be 2.23.
As to DAAE, the enrichment ratio was no more than 0.25.
The figure for LVWE is no more than 0.25; for HYGK it is no more than 0.25.
The figure for QMMR is no more than 0.25.
The figure for WHRT is no more than 0.25.
Take VKVT: the enrichment ratio is no more than 0.25.
For the variant MFWW, the enrichment ratio is no more than 0.25.
The figure for HIYH is no more than 0.25; for LKEP it is no more than 0.25.
Then YGKA, with no more than 0.25; and MNTE, with no more than 0.25.
For HDET, the enrichment ratio was no more than 0.25.
The figure for LRQE is no more than 0.25; for DDIF it is no more than 0.25; for IWNI it is no more than 0.25.
The figure for GCIY is no more than 0.25; for AARM it is no more than 0.25; for RDRS it is no more than 0.25.
Then MLKY, with no more than 0.25.
In the case of DVSG, the enrichment ratio is no more than 0.25.
As for EGPH, the enrichment ratio is no more than 0.25.
As for YRPK, the enrichment ratio was no more than 0.25.
The figure for IECR is no more than 0.25.
For the variant RKHG, the enrichment ratio was no more than 0.25.
The figure for WSQP is no more than 0.25; for FNMS it is no more than 0.25.
As to RAHY, the enrichment ratio came to 0.456.
Then EYAV, with no more than 0.25; and GKLV, with 6.19.
The figure for MRTM is 0.463; for PWLI it is no more than 0.25.
Turning to GDYW, the enrichment ratio was no more than 0.25.
Then QEAM, with no more than 0.25.
With ALYS, the enrichment ratio is no more than 0.25.
The figure for TLVD is no more than 0.25; for FRPY it is no more than 0.25.
On to YFNR, for which the enrichment ratio was no more than 0.25.
Then AVPF, with no more than 0.25; and SDAC, with 1.35.
For the variant PELP, the enrichment ratio was no more than 0.25.
Then IHHT, with no more than 0.25.
Then SVPK, with no more than 0.25.
The figure for KGNI is no more than 0.25.
For the variant AYMF, the enrichment ratio is no more than 0.25.
Then GRVS, with no more than 0.25.
Then SGKY, with no more than 0.25.
As to NHER, the enrichment ratio was no more than 0.25.
For the variant KLEP, the enrichment ratio was no more than 0.25.
The figure for DNFE is no more than 0.25; for WRLW it is no more than 0.25.
In the case of YYSH, the enrichment ratio was no more than 0.25.
As for HPIQ, the enrichment ratio is no more than 0.25.
Then ETEE, with no more than 0.25; and WFWE, with no more than 0.25; and YEGK, with no more than 0.25.
WIVH: the enrichment ratio is no more than 0.25.
For the variant ISHW, the enrichment ratio was no more than 0.25.
Then EYYH, with no more than 0.25; and RRMR, with no more than 0.25; and RRIP, with no more than 0.25.
Regarding FNIT, the enrichment ratio was no more than 0.25.
Then LHFD, with no more than 0.25; and SAQP, with no more than 0.25; and TNQC, with 7.02.
The figure for TFCG is 5.19.
With KFPM, the enrichment ratio was no more than 0.25.
The figure for TMTA is 11.2; for RVTS it is no more than 0.25.
Then PGWG, with no more than 0.25; and MCHF, with 6.32.
With PISL, the enrichment ratio was no more than 0.25.
For PTVG, the enrichment ratio is no more than 0.25.
The figure for MGFA is 3.62; for MSGD it is no more than 0.25; for ISHG it is no more than 0.25.
The figure for TFFE is no more than 0.25; for YFSE it is no more than 0.25.
On to TTWW, for which the enrichment ratio is no more than 0.25.
The figure for PRWA is no more than 0.25.
As to QIRD, the enrichment ratio is no more than 0.25.
Then IALQ, with 3.38; and FKHR, with no more than 0.25; and GECL, with 5.03.
Turning to KHIR, the enrichment ratio is no more than 0.25.
As for FQLY, the enrichment ratio was determined as 3.42.
TNVS: the enrichment ratio came out at 0.527.
For KSLG, the enrichment ratio is no more than 0.25.
Then KVPD, with no more than 0.25.
PYDM: the enrichment ratio was no more than 0.25.
Then LETR, with no more than 0.25; and GIKL, with no more than 0.25; and ERKV, with no more than 0.25.
As for RQTS, the enrichment ratio was no more than 0.25.
Then MGMN, with no more than 0.25.
Then ILWN, with no more than 0.25; and QMSC, with no more than 0.25.
Consider VRCN, for which the enrichment ratio was no more than 0.25.
Consider IIAG, for which the enrichment ratio is no more than 0.25.
For VIHH, the enrichment ratio was no more than 0.25.
Then FYNW, with no more than 0.25; and VGII, with no more than 0.25; and ELIF, with no more than 0.25.
For RTID, the enrichment ratio was no more than 0.25.
Then SYIG, with 11.3; and RYMN, with no more than 0.25.
Then KGKY, with no more than 0.25.
The figure for FPLN is no more than 0.25; for QPSG it is no more than 0.25.
With KEAA, the enrichment ratio was no more than 0.25.
The figure for TPSF is no more than 0.25; for EARN it is no more than 0.25; for TRQL it is no more than 0.25.
Then YCGN, with no more than 0.25; and HYVA, with no more than 0.25.
The figure for SMYH is no more than 0.25; for TFVM it is no more than 0.25.
VIRG: the enrichment ratio is no more than 0.25.
The figure for SFDV is no more than 0.25; for ANDK it is no more than 0.25; for HMAY it is no more than 0.25.
Then PWKA, with no more than 0.25; and TEYS, with 11.9; and GIRT, with no more than 0.25.
As to VYHR, the enrichment ratio was no more than 0.25.
Then NDFF, with no more than 0.25.
Then SKCS, with 6.51; and KYWG, with no more than 0.25; and HWLC, with no more than 0.25.
The figure for YVIW is no more than 0.25; for YLSK it is no more than 0.25.
NHDY: the enrichment ratio is no more than 0.25.
With TQGR, the enrichment ratio was no more than 0.25.
KHKG: the enrichment ratio was no more than 0.25.
Then FREW, with no more than 0.25; and IPIT, with no more than 0.25; and QNLS, with no more than 0.25.
Then DLIQ, with no more than 0.25.
